Some of the results follow.
tested on: T1, C. trachomatis L2/434/Bu expressing GFP (CTL2-GFP); design: species or system HeLa; C. trachomatis total inclusion area by high-content imaging, normalised to DMSO; conditions: total inclusion area; 28.5 h, 10 µM; inhibitor
T1 construct: L2/434/Bu GFP intracellular growth in HeLa cells
Outline: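 After bulk GFP and resorufin fluorescence reads, cells were fixed, stained with Hoechst and imaged by high-content microscopy. Inclusion area and number (GFP) stood in for chlamydial growth, nuclei count (Hoechst) for host cell viability. MICs were derived as for the bulk readout.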

SMILES	% of control remaining
Cc1c(C(=O)N2CCCC(c3nc(C)n4ccsc34)C2)cnn1C (centres unmarked) [CBK284593]	99.1408
CCOc1cc(C)c(Cl)cc1S(=O)(=O)NCc1ccncc1 [CBK269954]	43.6709
CC(CC(=O)O)CC(=O)Nc1cccc(C(=O)O)c1 (centres unmarked) [CBK265651]	95.4945
Cc1cnn(C)c1CN1CCNC(=O)C1c1ccccc1C(F)(F)F (centres unmarked) [CBK304260]	121.795
CCc1ccc(N(CC(=O)NCc2ccccn2)S(C)(=O)=O)cc1 [CBK265322]	105.704
Nc1nc2c(ccn2[C@@H]2O[C@H](CO)[C@H](O)C2O)c(=O)[nH]1 (some centres unmarked) [CBK201190]	102.814
Nn1c(COc2ccccc2)nnc1SCC(=O)c1ccc2c(c1)CCCC2 [CBK268466]	75.5264
O=[N+]([O-])c1ccc(N2CCN(S(=O)(=O)c3ccc4ccccc4c3)CC2)cc1NCc1ccco1 [CBK264417]	112.685
Cc1cc(OC(F)(F)F)ccc1NS(=O)(=O)c1ccc(-c2ccon2)s1 [CBK062361]	99.1125
COc1ccc(S(=O)(=O)N2CCCCC2)cc1NC(=O)c1ccc(-c2nnn[nH]2)cc1 [CBK297128]	92.144
Cc1cc(C)nc(N2CCC(CC(=O)N3CCCCC3CN3CCCC3)CC2)n1 (centres unmarked) [CBK286254]	108.969
CC[C@H]1CN(C(=O)Nc2cccc(OC)c2)CC[C@H]1CC(=O)O [CBK288778]	90.1495
COc1cccc2cc(C(=O)N3CCN(CCO)CC3)c(=O)oc12 [CBK293932]	102.368
O=C(c1ccccc1)N1C[C@@H](c2ccsc2)[C@@H]2CN(Cc3cccc(Cl)c3)CC[C@@H]21 [CBK285603]	62.6633
CCc1c(C)nc2c(C(=O)N3CCOCC3)cnn2c1C [CBK162134]	91.2767
CN1CCN(C(=O)CN(Cc2ccccc2)S(C)(=O)=O)CC1 [CBK265745]	67.1746
CC1(C)[C@H]2CC[C@]1(C)[C@@H](OCCNc1ccccc1)C2 [CBK021967]	61.6808
CC(=O)Nc1ccc(Nc2cc(C)nc(-n3nc(C)cc3C)n2)cc1 [CBK287746]	74.3254
O=C(Cc1csc(-c2ccc(Cl)cc2)n1)Nc1ccccn1 [CBK107364]	95.7685
COc1ccc(NC(=O)Nc2nn(Cc3ccc(Cl)cc3Cl)cc2Br)cc1OC [CBK266930]	116.663
Cc1ccc(S(=O)(=O)Nc2ccc(Nc3cc(-c4ccc(CNC(=O)OC(C)(C)C)cc4)ncn3)cc2)cc1 [CBK090967]	111.591
O=C(Nc1ccc(OC(F)(F)F)cc1)c1cnc(-c2ccc(Cl)cc2)c(-c2ccc(O)cc2)c1 [CBK037485]	120.772
NS(=O)(=O)c1ccc(NC(=O)C2CCCN(S(=O)(=O)c3ccc(Cl)cc3)C2)cc1 (centres unmarked) [CBK266813]	102.894
Cc1nccn1CCN(C)C(=O)c1ccc2c(c1)ncn2C [CBK281993]	94.5504
COCCOc1nccnc1N1CCNCC1 [CBK001903G]	64.0269

SMILES	% of control remaining
CC(Sc1nc(N)cc(N)n1)C(=O)c1ccc(F)c(F)c1 (centres unmarked) [CBK296928]	88.9635
Cc1csc2ncc(C(=O)Nc3ccc(OC(F)(F)F)cc3)c(=O)n12 [CBK287457]	102.718
O=C(c1ccc(F)cc1)C1CCN(Cc2ncc[nH]2)CC1 [CBK149135]	94.8781
Cc1cc(C(=O)NCCc2ccc(S(=O)(=O)NC(=O)NC3CCCCC3)cc2)n[nH]1 [CBK023997]	51.9061
Cc1cc(=O)c2ccccc2n1CC(=O)N1CCC2(CCOCC2)CC1 [CBK306869]	65.0577
CC(C)[C@@H](CO)n1c(=O)[nH]c2ncc(-c3cccc4cccnc34)nc21 [CBK064848]	119.872
CCOc1ccc(Cl)cc1CN(C)C(=O)NC(c1ncnn1C)C(C)C (centres unmarked) [CBK307110]	86.3447
CN(C)c1ncc(CNc2nc(O)c3c(n2)CCCC3)cn1 [CBK305460]	73.995
COc1ccc(CCCNC(=N)N)cc1Cl [CBK261404G]	77.7024
O=C(O)c1cc(-n2c(S)nnc2-c2cnccn2)ccc1Cl [CBK269285]	107.892
CCn1c(C)nnc1SCC(=O)Nc1cc(C(F)(F)F)ccc1Cl [CBK304382]	67.1691
O=C(NCC1(N2CCOCC2)CCCCC1)c1ccccc1C(=O)c1ccc(F)cc1 [CBK297938]	69.7528
CC1CN(Cc2c(C(F)(F)F)[nH]c3ncccc23)CC(C)O1 (centres unmarked) [CBK285344]	77.2177
CCOc1ccccc1NC(=O)NC(=O)C1CCN(CCCc2ccc3c(c2)OCO3)CC1 [CBK034924]	103.1
COc1ccc(C(=O)c2c[nH]c3ccccc23)cc1 [CBK111451]	125.415
Nc1cccc2c1C(=O)N(c1ccccc1C(=O)O)C2=O [CBK287220]	99.4346
CCN(CCO)c1ccc(Nc2cc(-c3ccsc3)ncn2)cc1 [CBK091000]	69.2329
O=c1n(Cc2ccccc2F)nc2nnc(-c3ccccc3)c(-c3ccccc3)n12 [CBK286179]	108.864
CCOC(=O)C1(C2CCCCC2)CCN(C(=O)CC2NC(=O)NC2=O)CC1 (centres unmarked) [CBK136938]	95.8536
O=C(O)CCCSCC(=O)Nc1ccccc1 [CBK276905]	106.353
O=[N+]([O-])c1ccc(CN2CCN(c3nccnc3OCCN3CCOCC3)CC2)cc1 [CBK082892T]	94.6401
O=C(CSc1nnc(SCc2cccc3ccccc23)s1)c1ccc(F)cc1 [CBK266218]	92.1262
Cn1c2ccccc2c2cc(/C=C(/NC(=O)c3ccccc3)C(=O)Nc3cccc(O)c3)ccc21 [CBK261449]	65.6038
CN(C)CCN1C(=O)C(O)=C(C(=O)c2ccc(S(=O)(=O)N3CCOCC3)cc2)C1c1ccc(F)cc1 (centres unmarked) [CBK264683]	113.56
CCN1CCN(C(=O)CN(Cc2ccc(Cl)cc2)S(C)(=O)=O)CC1 [CBK269263]	101.373

Reference: publication PMC12040169 (PLOS Biology, 2025)
